Experimental data taken from the supplement of paper PMC3334620.
The full ranking holds about 33,000 sequences; the median of “E-score (-0.5 to 0.5)” is about -0.036, and the highest 2% start at about 0.37. This is one part of the list.

target: T1, Yer064c (UniProt P40041); experiment: PBM E-score (8-mer binding enrichment) (E-score (-0.5 to 0.5)); higher = stronger / more preferred TF binding; most listed sequences are background and not binding sites; details: protein concentration: 200 nM; construct: GST-full length
T1 sequence: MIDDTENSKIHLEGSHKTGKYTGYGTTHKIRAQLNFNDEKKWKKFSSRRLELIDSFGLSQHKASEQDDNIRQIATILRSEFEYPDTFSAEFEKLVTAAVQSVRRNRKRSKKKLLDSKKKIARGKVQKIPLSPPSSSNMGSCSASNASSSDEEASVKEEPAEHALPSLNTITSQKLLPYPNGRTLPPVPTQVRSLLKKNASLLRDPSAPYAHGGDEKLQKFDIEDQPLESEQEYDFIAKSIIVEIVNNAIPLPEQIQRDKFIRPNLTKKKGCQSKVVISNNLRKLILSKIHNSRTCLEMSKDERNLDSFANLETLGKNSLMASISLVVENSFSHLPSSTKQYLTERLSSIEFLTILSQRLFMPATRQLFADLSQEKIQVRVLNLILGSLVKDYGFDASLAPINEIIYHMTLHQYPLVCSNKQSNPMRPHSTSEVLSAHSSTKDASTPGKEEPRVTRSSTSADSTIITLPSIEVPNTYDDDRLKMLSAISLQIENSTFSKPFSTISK
Method in brief: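 Each ungapped eight-base word and its reverse complement, pooled, received an E-score from the Universal PBM Analysis Suite. Underlying scans, normalised with masliner, recorded fluorescent anti-GST bound to GST-tagged yeast transcription factors. These were applied at about 100-200 nM to universal all-10-mer Agilent arrays double-stranded by primer extension.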

| Sequence | PBM E-score |
| --- | --- |
| GTAGGGAA | -0.131 |
| GTGGCTGA | 0.0237 |
| ACAGCTTC | -0.232 |
| GTCTTACA | 0.135 |
| CAAACACC | 0.0494 |
| ATTCCGGC | -0.207 |
| CAATCTGC | -0.183 |
| GATGAGTA | 0.429 |
| CAGCGTCC | -0.124 |
| CTCTAAGA | 0.0416 |
| GACTCAAA | 0.48 |
| CCACTTAG | 0.15 |
| CCTGCCCC | -0.131 |
| AACGCTCA | -0.103 |
| CTATTATC | 0.0272 |
| GGAGGCAC | -0.159 |
| CACCTGTA | -0.103 |
| ACTTACCG | 0.0141 |
| ATACAAAG | 0.201 |
| ACACAACG | -0.0515 |
| ATCGGTGC | -0.146 |
| AATCATTC | 0.417 |
| ACTAGACC | 0.097 |
| AACTCGCC | -0.0941 |
| CGAGGGCA | -0.274 |

| Sequence | PBM E-score |
| --- | --- |
| GCACACGA | 0.0265 |
| ATCGCTAA | 0.0932 |
| AGACCGAA | 0.0789 |
| GAATAGAA | 0.119 |
| CTGCTAAG | -0.0639 |
| GATATCGC | -0.0951 |
| ACGCATGG | -0.0728 |
| ACGTACGG | -0.149 |
| GTGGGTCA | 0.146 |
| AAGGCATA | -0.129 |
| AAGGCAGT | 0.133 |
| AAGCCGTA | -0.038 |
| ATAAGCCC | -0.375 |
| GGATACGA | -0.0195 |
| CATCTAGG | 0.0162 |
| CTTCGTAA | -0.0629 |
| CCTAATAA | -0.129 |
| CCCCAAAA | 0.00289 |
| ATATACGG | -0.0692 |
| ATGATAAA | 0.0806 |
| CCTCAGGA | -0.0143 |
| ACTCTTTC | 0.303 |
| CCTTCTGA | -0.0564 |
| ATCTAGAA | 0.149 |
| ACTGGGTG | 0.0348 |

| Sequence | PBM E-score |
| --- | --- |
| AAAACCCA | -0.0671 |
| GCTCGCAA | -0.0425 |
| CAGGCCTG | -0.15 |
| CGCAGGGA | -0.0887 |
| ACTCGATG | 0.25 |
| AGTGTAGA | 0.0906 |
| TACCCCTA | -0.042 |
| GGTCGGAC | 0.0346 |
| CGCAAGCG | -0.0375 |
| ATATCAAA | 0.124 |
| TAGATCTA | 0.00835 |
| AGCCGTTC | -0.201 |
| CTGCATTC | -0.0186 |
| AAGTCGTC | 0.273 |
| CAACACAC | 0.0236 |
| GACAGAGC | -0.0875 |
| AGAGGGTC | -0.105 |
| AAAAAGGG | -0.0603 |
| AGGGAAAA | -0.0867 |
| GCTACCCA | -0.00982 |
| AACTGGGA | -0.19 |
| GCTGGCCA | -0.198 |
| ACAGACAA | 0.123 |
| CCTACTTA | -0.091 |
| AAGTCTCT | 0.033 |

| Sequence | PBM E-score |
| --- | --- |
| AGACGGGC | -0.335 |
| CAATGTGA | 0.0486 |
| GAGCTCAC | 0.0076 |
| ATCTACAG | -0.118 |
| TATGCGGA | -0.204 |
| ACGGATTC | -0.00359 |
| CGCACGCA | -0.232 |
| AGCTCGGA | -0.183 |
| GTATTTCA | 0.00218 |
| CAGGGACA | 0.111 |
| CACCCCAC | 0.00556 |
| AGTGTTGG | -0.201 |
| TAGGAAGA | 0.0707 |
| CGAGTACG | 0.175 |
| CAACTACG | -0.0569 |
| GAGGCGCC | -0.121 |
| CGTTGTTA | 0.0945 |
| CGCTGGGA | -0.21 |
| AAATATCG | 0.0289 |
| TCTGTAAA | -0.0296 |
| ACCAAGGT | -0.00843 |
| ACCATCCT | -0.0228 |
| TGCTAGAA | -0.0216 |
| CTGAGGCC | -0.117 |
| GTCTCCTA | 0.0324 |

| Sequence | PBM E-score |
| --- | --- |
| GATAATGC | -0.131 |
| GATCGGAA | -0.132 |
| ATTAACTG | 0.296 |
| ACAAAGAA | 0.0748 |
| GAATAAGC | -0.0833 |
| AATCAGCT | 0.389 |
| CAAACCCC | -0.133 |
| CGTGACGC | -0.00579 |
| AACAGCGT | -0.147 |
| CGAGGCAA | -0.114 |
| CGAATAAA | -0.168 |
| TCACTCGA | 0.225 |
| ATCGGTAA | 0.0956 |
| AGGCACAG | -0.0793 |
| AGCCTTGA | 0.116 |
| AGTTGCTA | -0.121 |
| CAGACACA | 0.0787 |
| CACGGGCG | -0.187 |
| CTAGGGTC | -0.251 |
| AACACCAT | -0.0344 |
| ACAAAAAT | 0.113 |
| ATCTTAGC | 0.043 |
| AGAAGTGA | 0.0848 |
| CGGCGTAC | -0.0619 |
| GCATTAAA | 0.0123 |

| Sequence | PBM E-score |
| --- | --- |
| AACGCAAA | -0.0149 |
| ATAACGCG | 0.00405 |
| CCGAAGGC | -0.183 |
| ACTACTCG | 0.236 |
| GATAGCGC | -0.282 |
| AGATGGCC | -0.16 |
| GGATGAAA | -0.0892 |
| CTTCTAGC | -0.213 |
| CATGGAAC | 0.0128 |
| CTCAAGAA | 0.0322 |
| CCACTGCC | -0.0194 |
| AAGCCGCC | -0.179 |
| AGAGTACC | 0.0405 |
| ACTAAGGG | 0.206 |
| AGCAGTTA | 0.0388 |
| CTTCTCTA | -0.0864 |
| AATACCTC | -0.0149 |
| GATCTGCA | 0.0135 |
| TAATTTAA | 0.0979 |
| AGAACCAT | 0.173 |
| CATAGTCC | 0.304 |
| TCTTCTAA | 0.129 |
| ACGCAAGC | -0.0709 |
| ATGATCAC | 0.301 |
| ACCCGCAG | 0.0055 |

| Sequence | PBM E-score |
| --- | --- |
| AAACCTAC | -0.174 |
| CACCGTGA | 0.0835 |
| ACGCCGCT | -0.119 |
| GGTCATTA | -0.0121 |
| AACATATT | -0.0685 |
| ACGGAAGT | 0.0358 |
| CGGATGTC | -0.107 |
| ACATCAGG | -0.144 |
| CCGTCACC | -0.189 |
| ATGCCATA | -0.218 |
| AACGTTCT | -0.0715 |
| AGAGGGCT | -0.315 |
| ATTTAGGG | -0.0441 |
| AGGATACT | -0.164 |
| ACGCATTA | 0.0852 |
| AGAATAGA | 0.0419 |
| ACCAGCAT | -0.0398 |
| TCAGTTCA | 0.0883 |
| ATTGTTTG | 0.145 |
| TGGGCACA | -0.204 |
| ATGGGCAA | -0.028 |
| AAGGTAAC | -0.0984 |
